Structures can show the parent of a compound that is named as a salt. ± gives the standard deviation of the averaged measurements. In all, about 1,900 compounds were measured (“normalised cell viability (NPI; 0 = phenylarsine oxide control, 1 = DMSO control)”: median about 1, lowest 2% from about 0.039 on). The list shows a part of the results.
Tested on: NCI-H1944
Assay: normalised cell viability (NPI; 0 = phenylarsine oxide control, 1 = DMSO control) (fraction of DMSO control); NCI-H1944 is a non-small cell lung cancer line; higher = more viable cells (less compound toxicity)
Conditions: 6 days
[1] = glucocorticoid arm: hydrocortisone 2.75 uM co-treatment, compound 1 µM
[2] = glucocorticoid arm: hydrocortisone 2.75 uM co-treatment, compound 5 µM
[3] = glucocorticoid arm: hydrocortisone 2.75 uM pre-treated 2 days and continued, compound 1 µM
[4] = glucocorticoid arm: hydrocortisone 2.75 uM pre-treated 2 days and continued, compound 5 µM
[5] = glucocorticoid arm: vehicle, compound 1 µM
[6] = glucocorticoid arm: vehicle, compound 5 µM
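Further: CTB read-out in 384-well plates, mean of triplicate wells, normalised per plate against 1 µM phenylarsine oxide and 0.1% DMSO, compounds added 24 h after seeding.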

| Structure (SMILES) | normalised cell viability [1] | normalised cell viability [2] | normalised cell viability [3] | normalised cell viability [4] | normalised cell viability [5] | normalised cell viability [6] |
| --- | --- | --- | --- | --- | --- | --- |
| O=c1c(O)c(-c2ccc(O)cc2O)oc2cc(O)cc(O)c12 [Morin] | 0.998 ± 0.012 | 1 ± 0.033 | 1 ± 0.014 | 1.01 ± 0.044 | 0.985 ± 0.0056 | 0.998 ± 0.011 |
| CC(/C=C/c1cccc(Oc2ccc(F)cc2)c1)N(O)C(N)=O (stereo not drawn) | 1.017 ± 0.0058 | 1.07 ± 0.01 | 1.01 ± 0.011 | 1.06 ± 0.014 | 1.02 ± 0.015 | 1.023 ± 0.0058 |
| COc1ccc(F)c(F)c1C(=O)c1cnc(NC2CCN(S(C)(=O)=O)CC2)nc1N | 0.797 ± 0.064 | 0.846 ± 0.015 | 1.01 ± 0.011 | 1.01 ± 0.02 | 0.367 ± 0.033 | 0.404 ± 0.028 |
| Oc1ccc([C@@H]2CNCc3sccc32)cc1O | 1.013 ± 0.0058 | 1.03 ± 0.026 | 0.965 ± 0.069 | 1.01 ± 0.015 | 1.003 ± 0.0058 | 0.9983 ± 0.0015 |
| Cc1ccc([N+](=O)[O-])cc1S(=O)(=O)N(C)C | 1 ± 0.018 | 0.9945 ± 0.0095 | 1 ± 0.011 | 0.978 ± 0.028 | 1.004 ± 0.0094 | 1.007 ± 0.0052 |
| CC(C)C[C@H](NP(=O)(O)O[C@H]1O[C@H](C)[C@@H](O)[C@H](O)[C@@H]1O)C(=O)N[C@@H](Cc1c[nH]c2ccccc12)C(=O)O [Phosphoramidon disodium] | 0.9937 ± 0.0061 | 1.01 ± 0.02 | 1.01 ± 0.016 | 0.999 ± 0.011 | 0.991 ± 0.0044 | 0.9847 ± 0.0081 |
| NNc1nncc2ccccc12 [Hydralazine hydrochloride] | 0.99967 ± 0.00058 | 0.987 ± 0.021 | 0.997 ± 0.015 | 0.979 ± 0.022 | 0.9967 ± 0.0035 | 0.9957 ± 0.0038 |
| C=CC(=O)Nc1cccc(Oc2nc(Nc3ccc(N4CCN(C)CC4)cc3OC)ncc2Cl)c1 | 0.993 ± 0.024 | 0.978 ± 0.021 | 0.966 ± 0.016 | 0.993 ± 0.015 | 0.9853 ± 0.0071 | 0.986 ± 0.013 |
| O=C(/C=C/c1ccc(O)c(O)c1)OCCc1ccccc1 [Caffeic acid phenethyl ester] | 1 ± 0.0092 | 1 ± 0.016 | 1 | 0.992 ± 0.012 | 0.9827 ± 0.0064 | 0.989 ± 0.012 |
| Cc1ccccc1CN1C2=NCCN2C(=O)C2=C1CCN(Cc1ccccc1)C2 | 1.01 ± 0.017 | 1.03 ± 0.026 | 1.01 ± 0.011 | 0.991 ± 0.028 | 0.999 ± 0.011 | 1.003 ± 0.0058 |
| CC[C@H](C)C(=O)O[C@H]1CCC=C2C=C[C@H](C)[C@H](CC[C@@H]3C[C@@H](O)CC(=O)O3)[C@H]21 [Mevastatin] | 0.9803 ± 0.0032 | 0.939 ± 0.042 | 0.99 ± 0.026 | 1.03 ± 0.08 | 0.997 ± 0.003 | 0.9933 ± 0.0076 |
| Cn1ccc2cc(NC(=O)Nc3cccnc3)ccc21 | 1.017 ± 0.0058 | 0.991 ± 0.012 | 1.02 ± 0.01 | 1 ± 0.013 | 0.993 ± 0.015 | 1 |
| CS(=O)(=O)N1CCc2c(-c3cnc(N)nc3)nc(N3CCOCC3)nc21 | 0.528 ± 0.021 | 0.513 ± 0.01 | 0.552 ± 0.058 | 0.627 ± 0.034 | 0.491 ± 0.024 | 0.651 ± 0.064 |
